Whole data set: some 33,000 sequences, median “E-score (-0.5 to 0.5)” near -0.012, cut for the highest 2% near 0.29. The list shows a part of the results.
Biological target: T1, Ybr033w (UniProt P38073)
T1 sequence: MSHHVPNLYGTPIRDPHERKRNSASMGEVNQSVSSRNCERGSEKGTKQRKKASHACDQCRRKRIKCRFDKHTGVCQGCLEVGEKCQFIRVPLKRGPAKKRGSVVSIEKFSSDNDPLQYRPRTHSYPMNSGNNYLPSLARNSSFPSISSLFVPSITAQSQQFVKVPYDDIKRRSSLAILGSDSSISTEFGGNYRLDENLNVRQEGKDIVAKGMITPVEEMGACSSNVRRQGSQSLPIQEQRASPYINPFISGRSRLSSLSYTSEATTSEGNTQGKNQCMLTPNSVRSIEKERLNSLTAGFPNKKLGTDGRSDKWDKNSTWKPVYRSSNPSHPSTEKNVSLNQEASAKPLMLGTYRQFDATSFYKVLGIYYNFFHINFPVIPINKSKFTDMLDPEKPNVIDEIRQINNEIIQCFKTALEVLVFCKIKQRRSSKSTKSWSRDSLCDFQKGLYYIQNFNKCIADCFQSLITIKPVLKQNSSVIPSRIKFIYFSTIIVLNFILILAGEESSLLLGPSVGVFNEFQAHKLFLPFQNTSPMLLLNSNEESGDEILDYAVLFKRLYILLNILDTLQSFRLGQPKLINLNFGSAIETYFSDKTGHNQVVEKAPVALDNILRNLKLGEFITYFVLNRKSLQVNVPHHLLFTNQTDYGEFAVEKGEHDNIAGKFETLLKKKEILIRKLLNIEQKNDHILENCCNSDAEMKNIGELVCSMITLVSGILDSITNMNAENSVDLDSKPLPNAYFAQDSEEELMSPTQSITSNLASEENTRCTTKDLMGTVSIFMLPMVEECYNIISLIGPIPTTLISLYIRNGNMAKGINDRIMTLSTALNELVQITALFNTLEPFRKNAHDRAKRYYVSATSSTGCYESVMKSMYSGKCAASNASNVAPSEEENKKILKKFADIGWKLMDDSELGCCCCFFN
Assay: PBM E-score (8-mer binding enrichment) (E-score (-0.5 to 0.5)); higher = stronger / more preferred TF binding; most listed sequences are background and not binding sites
Conditions: protein concentration: 200 nM; construct: GST-full length
In short: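 Detection of bound protein used fluorescent anti-GST, with scans normalised by masliner. The proteins were GST-tagged yeast transcription factors applied at about 100-200 nM to universal all-10-mer Agilent arrays made double-stranded by primer extension. Each ungapped eight-base word, pooled with its reverse complement, was scored with an E-score from the Universal PBM Analysis Suite.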

Sequence	PBM E-score
CCGAGCAC	-0.0526
AGAAGGCA	-0.0967
TAACTATA	0.242
GCGGCAGC	-0.239
GCCCAGGA	-0.0995
AATCGAAT	0.151
GACTAGCA	-0.00618
CTTTAGAA	0.0277
ACGTAGGA	0.0553
ACGCTGTA	0.0471
CTATAATC	0.239
CTGCCGCA	-0.208
ATCCGACA	0.0298
CGTGACAG	-0.145
CACCACAC	0.0283
CAACATTG	0.0622
CCGAAGCA	0.0595
AGCGCGGG	-0.0708
ATCTGCAC	-0.162
GCTGGATA	0.142
CATGTAGA	0.123
GACTTTCC	0.0496
AGACGATG	-0.113
GATGCCAC	-0.0736
GGTGTATA	-0.146

Sequence	PBM E-score
ACCTTAAC	0.0325
AGTTTCGC	0.0944
AACCGTCC	-0.211
ATTAAGAG	0.163
ACCAGCCC	-0.049
CACTAGTA	0.0533
GACTTACA	0.011
GCGGTGCC	-0.403
GATGCCTA	-0.0483
CAGTGGGG	-0.256
GAGGAAAC	0.0646
TAAATCGA	0.187
ACCAGGCC	-0.119
CCCGCTAA	-0.192
ACCTATAA	0.0203
AACAGATA	0.096
ATCGAGTC	0.0943
CTGCTGTC	-0.046
GCGTCCTA	-0.287
CCCGGCCG	-0.279
CAAAGCCA	0.109
GGGTACCC	-0.44
CATACATC	0.137
CCCAGCAC	-0.195
AATACTGG	0.0445

Sequence	PBM E-score
CATATCAG	0.0658
GATTGCGA	0.0845
AGATTCTG	-0.0373
CGGTTGAC	0.0343
CGTAAAGA	-0.0435
CTGCTAGA	-0.0174
CAGACCCA	-0.203
ATACGGGA	0.0278
CGATTGAC	0.0187
CCTATATA	0.125
ACCCGACA	-0.0502
ACGCCAGA	-0.011
CAAGCTAA	-0.0334
AGACTCCG	-0.0353
CGCGGTGC	-0.269
AAACAGTG	0.103
ATCCACAT	0.224
AGGGGAGG	-0.0285
CAACTTCG	0.0356
AATATTTG	0.232
AGCGTCCA	-0.13
CTTCCTGA	0.281
GAATTAGC	0.041
AACACACA	0.178
TGCGCAAA	-0.00319

Sequence	PBM E-score
AAAGTAAT	0.203
AGAAGTAC	-0.085
GAGATCAC	-0.0288
TCACAGCA	0.0204
GTCGTGAA	-0.0309
TGCCAGCA	-0.023
GCGGTACC	-0.167
CTTGTTCA	-0.0165
ACAGTGGG	-0.021
AAAGTATA	0.249
CCGTACGG	-0.219
ATAACGAA	0.229
CAAGGTTA	0.0697
CAGACCAA	0.0179
ACCTCCGC	-0.243
CAAGCACA	-0.0197
AATAATTG	0.256
AGCGACCG	-0.0457
AACGGCGG	-0.302
CAACAGGG	-0.0175
TAAGAATA	0.0479
ATGCGTCG	-0.119
ACAGAGTG	0.0548
AGAATAAA	0.312
AGGGACAT	0.0463

Sequence	PBM E-score
GACGGCTA	0.0615
GTGCCTAA	-0.0516
AATGATAT	0.298
GCAATAGC	0.0225
CTTCTTCA	0.0645
GGTCGACC	0.0932
ATCAGTAA	0.242
CGCAATGA	0.132
CATGCCCG	-0.0453
GCAAAATA	0.287
CCGTGGTA	-0.024
CCAGAAAA	0.089
CTAATGAC	-0.179
AACGGCCC	-0.3
CATCATAA	0.175
CCGATAGA	-0.0881
CAACAACG	0.00121
CCTTTAGA	-0.0803
CAGTAAAA	0.187
ACGGTATC	0.00129
ATCGTGAA	-0.0115
CGGCAAGC	-0.185
CCGCACAG	-0.133
ATTCATAA	0.188
AGGCAATG	-0.0925

Sequence	PBM E-score
CTCGTGCC	-0.244
CCCTGGCG	-0.258
CTGCTGGA	-0.121
CCATGACA	-0.0124
CAGTATCG	0.00581
ACAAGCCA	-0.0833
ACCTATTA	0.145
ATAAACTC	0.279
CAACTTGG	0.0321
AGGGTGAG	-0.184
AGAGTACT	-0.0915
CGACATTC	0.0043
ATATCCTC	0.0836
CTATATCC	0.159
GACCTTAA	-0.0604
AGGGTGAC	-0.117
AACTATCT	0.0736
AACTGAAT	-0.0881
CTCGTCGA	6e-05
GCCTCCCC	-0.292
AAGGGGTC	-0.323
GCAGACGC	-0.17
GAGGTACA	0.0115
CTATTCGC	0.0205
GTAATCAA	0.271

Sequence	PBM E-score
AGTCCTGC	-0.108
CTGAGCAC	-0.0928
CCCCCTGC	-0.375
AATCAATT	0.247
AGCTAGCG	-0.0886
ATACGTCC	-0.126
AGGCACTA	-0.0554
AGGATACC	-0.111
AGTTTAGA	0.146
ACAGATCC	0.114
ACAAGTCG	-0.187
AGGTGGAA	0.126
CCTATAAG	-0.00305
AAACACGT	-0.0842
ATTGGCTA	0.117
GTAACGTA	0.0344
CTTTATCC	0.172
CTCGGCAA	-0.167
ACCGAAGA	0.217
CAAGCAAC	0.0914
AATTCTAG	0.198
GTGACCAA	0.2
CTCTGGCC	-0.15
ATGATACG	0.116
GAAGTCCC	-0.372

Sequence	PBM E-score
GACGGGAA	-0.0918
AGATTTCG	0.124
AGAGTTGA	0.0245
CATTTCTA	0.222
GAACCCAC	-0.0814
ACCGGCCG	-0.247
TGTACCAA	0.0592
AAAAGAGG	-0.0444
CGACGCCG	-0.13
GAATTCGC	-0.0455
ATGCTCCA	-0.124
AAGGACGA	-0.126
CAATCTCG	-0.0177
GACGTATC	-0.12
AGGTATAC	0.147
ACCGGGCC	-0.142
ACCGACAC	-0.0337
GCTTTGAC	0.0363
TAGTAGGA	-0.00612
TCCAACAA	0.0559
ACTAACAA	0.0432
CCCTACCC	-0.218
GACGTGCA	-0.0902
AGGCCTCG	-0.308
AATATTCG	0.161

Sequence	PBM E-score
AGATGACT	-0.0856
GCAAACGC	-0.0432
CTACGGGC	-0.336
TCAAGTGA	-0.0425
TGGGAAAA	0.316
CAATGCGC	0.0638
TCTCAGAA	-0.0826
AATATTGA	0.329
AAGCATTA	0.0682
CTGGGGAA	-0.3
AGAACCTC	-0.171
TAATTGTA	0.279
CCGTAGCG	0.0186
ATCATCAC	0.12
ACTTCGCA	0.0372
ACACCGTA	-0.0776
CAGGTAGC	-0.108
CCTCATCC	-0.335
CTCTCATA	0.0382

From the supplement of paper PMC3334620
